This is one part of the list.

Results on 9 compounds are retold here after the antibiotic and cytotoxicity screens of Wong et al. (2023).

Assay [1] relates to HSkMC (human skeletal muscle cells). Nature of the assay: cytotoxicity call (relative viability < 0.9). The following applies: 10 µM.
Assay [2] concerns HepG2. Nature of the assay: cytotoxicity call (relative viability < 0.9). The conditions noted are these: 10 µM.
In assay [3] the test system is S. aureus RN4220. Nature of the assay: growth inhibition call (relative growth <= 0.2). The conditions noted are these: 50 µM.

As for `C[C@H](CO)N1C[C@H](C)[C@H](CN(C)Cc2ccc(Oc3ccccc3)cc2)Oc2c(NC(=O)Nc3cccc4ccccc34)cccc2C1=O`, the cytotoxicity call in assay [1] and in assay [2] was “inactive” each time. Moreover, in assay [3], the growth inhibition call is “inactive”.
With `O=C(O)CCN=C1NC(=O)CS1`, the cytotoxicity call in assay [1] is “inactive”. Also, the cytotoxicity call in assay [2] was “active”. Besides, in assay [3], the growth inhibition call is “inactive”.
Turning to `COc1ccc(NC(=O)Nc2ccc3c(c2)C(=O)N([C@@H](C)CO)C[C@@H](C)[C@H](CN(C)Cc2ccc(Cl)c(Cl)c2)OCCCC[C@@H](C)O3)cc1`, the cytotoxicity call in assay [1] and in assay [2] was “inactive” in each case. The growth inhibition call in assay [3] is “inactive”.
With `C=CCC[C@@H](Cc1ccc(F)cc1)C(=O)O[C@H](CNC(=O)[C@@H](CC=C)CC(=O)N[C@H](CO)Cc1ccccc1)c1ccccc1`, the cytotoxicity call in assay [1] and in assay [2] was “inactive” in each case. In assay [3], the growth inhibition call is “inactive”.
On to `Cc1ccccc1S(=O)(=O)N(C)C[C@@H]1Oc2ccc(NC(=O)Nc3ccc(Cl)c(Cl)c3)cc2CC(=O)N([C@@H](C)CO)C[C@@H]1C`, for which the cytotoxicity call in assay [1] and in assay [2] was “active” each time. Also, in assay [3], the growth inhibition call was “inactive”.
For the compound `Cn1c(=O)c2c(nc(NCCO)n2C)n(C)c1=O`, the cytotoxicity call in assay [1] and in assay [2] was “inactive” throughout. Moreover, the growth inhibition call in assay [3] was “inactive”.
`C[C@@H]1CCCCO[C@@H](CN(C)S(=O)(=O)c2ccc(Cl)cc2)[C@H](C)CN([C@H](C)CO)C(=O)c2cc(NS(=O)(=O)c3ccc(F)cc3)ccc2O1`: the cytotoxicity call in assay [1] and in assay [2] was “inactive” in each case. Besides, the growth inhibition call in assay [3] is “inactive”.
Turning to `C[C@H](CO)N1C[C@H](C)[C@@H](CN(C)Cc2ccc(C(=O)Nc3ccccc3N)cc2)Oc2ccc(NC(=O)Cn3cnnn3)cc2CC1=O`, the cytotoxicity call in assay [1] and in assay [2] was “inactive” throughout. Further, the growth inhibition call in assay [3] is “inactive”.
For the compound `C[C@@H]1CN([C@H](C)CO)S(=O)(=O)c2ccc(C3=CCCC3)cc2O[C@H]1CN(C)C(=O)Cc1ccncc1`, the cytotoxicity call in assay [1] and in assay [2] was “inactive” each time. Further, the growth inhibition call in assay [3] was “inactive”.
